According to publication PMC11282193, “Mst1-mediated phosphorylation of FoxO1 and C/EBP-β stimulates cell-protective mechanisms in cardiomyocytes”:
These are yes or no findings as the source states them, for the method shown. For some assays here: Binding seen in cells or lysates may run through a third protein. Some results given as binding are weak or reduced against the parent protein; the word gives no strength. For some assays here: Tags and fused reporters may be left off the sequences shown.

Sequences of proteins named here, by UniProt entry; tags and fusion partners are left off. A change or cut given only in a name is not applied to a line headed by its entry. A line that says so, or that is headed by a name, gives the form on record, which may keep a tag or linker.
UniProt Q9R1E0: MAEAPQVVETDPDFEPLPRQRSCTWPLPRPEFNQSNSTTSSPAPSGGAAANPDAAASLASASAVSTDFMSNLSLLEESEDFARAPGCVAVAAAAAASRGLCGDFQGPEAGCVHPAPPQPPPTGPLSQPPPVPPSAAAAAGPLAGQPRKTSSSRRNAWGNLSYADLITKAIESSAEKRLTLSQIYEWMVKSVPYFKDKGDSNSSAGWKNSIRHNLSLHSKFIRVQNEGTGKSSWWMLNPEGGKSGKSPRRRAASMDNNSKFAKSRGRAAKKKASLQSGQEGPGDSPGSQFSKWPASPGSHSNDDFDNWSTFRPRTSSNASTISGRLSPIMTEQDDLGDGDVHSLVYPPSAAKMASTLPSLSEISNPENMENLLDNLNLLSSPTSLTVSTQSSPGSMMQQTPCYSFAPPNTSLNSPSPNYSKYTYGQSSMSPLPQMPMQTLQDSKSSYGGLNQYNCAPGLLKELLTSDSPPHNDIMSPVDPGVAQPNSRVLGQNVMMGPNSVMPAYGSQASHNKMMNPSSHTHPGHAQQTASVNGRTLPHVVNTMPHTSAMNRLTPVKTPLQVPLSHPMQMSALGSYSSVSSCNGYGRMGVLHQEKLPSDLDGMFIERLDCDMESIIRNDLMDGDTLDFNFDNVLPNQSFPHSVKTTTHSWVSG
UniProt P17676: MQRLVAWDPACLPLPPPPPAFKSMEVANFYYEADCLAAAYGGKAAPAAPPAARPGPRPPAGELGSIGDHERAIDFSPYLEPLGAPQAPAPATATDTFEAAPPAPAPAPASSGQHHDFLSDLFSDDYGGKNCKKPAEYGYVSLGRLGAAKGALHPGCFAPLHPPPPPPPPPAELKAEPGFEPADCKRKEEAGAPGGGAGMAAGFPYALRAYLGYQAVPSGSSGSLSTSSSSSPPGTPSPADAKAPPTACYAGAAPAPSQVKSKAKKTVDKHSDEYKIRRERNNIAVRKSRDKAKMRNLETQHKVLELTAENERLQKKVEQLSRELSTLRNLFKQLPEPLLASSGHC
C/EBP-β Thr299Glu phospho-mimetic (PM) mutant, expressed in cardiomyocytes (P17676, form named): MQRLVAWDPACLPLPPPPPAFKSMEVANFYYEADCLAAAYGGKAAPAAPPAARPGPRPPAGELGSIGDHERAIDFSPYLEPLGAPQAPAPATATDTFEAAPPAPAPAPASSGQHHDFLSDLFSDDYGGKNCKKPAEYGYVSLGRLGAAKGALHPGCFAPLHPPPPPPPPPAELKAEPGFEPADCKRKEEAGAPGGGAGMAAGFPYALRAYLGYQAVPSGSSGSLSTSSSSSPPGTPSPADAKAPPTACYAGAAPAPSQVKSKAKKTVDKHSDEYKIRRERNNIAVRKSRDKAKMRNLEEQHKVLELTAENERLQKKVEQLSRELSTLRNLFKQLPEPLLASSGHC

Assays:
[1] = biological target: T1, Mammalian sterile 20-like kinase 1 (Mst1), endogenous in mouse heart (mouse (endogenous in heart)) (UniProt Q9JI11); test: co-IP; heart homogenates; immunoprecipitation with anti-Mst1 or control IgG, immunoblot with anti-FoxO1; at baseline and after 2 weeks of transverse aortic constriction
T1 sequence: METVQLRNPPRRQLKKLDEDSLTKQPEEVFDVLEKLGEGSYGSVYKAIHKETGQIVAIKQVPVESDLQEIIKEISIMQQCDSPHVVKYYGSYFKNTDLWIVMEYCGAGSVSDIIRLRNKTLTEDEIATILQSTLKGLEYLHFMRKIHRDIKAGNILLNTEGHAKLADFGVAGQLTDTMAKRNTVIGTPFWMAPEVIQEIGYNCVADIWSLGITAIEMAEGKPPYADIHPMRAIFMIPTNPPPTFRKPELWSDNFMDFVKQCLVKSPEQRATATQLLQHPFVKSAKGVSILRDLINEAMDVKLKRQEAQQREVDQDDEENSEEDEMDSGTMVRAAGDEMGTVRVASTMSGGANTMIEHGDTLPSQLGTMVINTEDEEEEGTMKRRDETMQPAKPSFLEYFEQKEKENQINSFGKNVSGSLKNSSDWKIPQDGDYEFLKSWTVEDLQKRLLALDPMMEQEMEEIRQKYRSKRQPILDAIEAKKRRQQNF

3xFlag-Mst1-WT = biological target: T2, 3xFlag-Mst1-WT (UniProt Q13043); test: pull-down; in vitro; recombinant GST-FoxO1 proteins (called preys in the legend) with 3xFlag-Mst1-WT; PBS with 0.5% Triton X-100, 4 °C, glutathione Sepharose 4B; immunoblot and CBB staining; both purified
T2 sequence: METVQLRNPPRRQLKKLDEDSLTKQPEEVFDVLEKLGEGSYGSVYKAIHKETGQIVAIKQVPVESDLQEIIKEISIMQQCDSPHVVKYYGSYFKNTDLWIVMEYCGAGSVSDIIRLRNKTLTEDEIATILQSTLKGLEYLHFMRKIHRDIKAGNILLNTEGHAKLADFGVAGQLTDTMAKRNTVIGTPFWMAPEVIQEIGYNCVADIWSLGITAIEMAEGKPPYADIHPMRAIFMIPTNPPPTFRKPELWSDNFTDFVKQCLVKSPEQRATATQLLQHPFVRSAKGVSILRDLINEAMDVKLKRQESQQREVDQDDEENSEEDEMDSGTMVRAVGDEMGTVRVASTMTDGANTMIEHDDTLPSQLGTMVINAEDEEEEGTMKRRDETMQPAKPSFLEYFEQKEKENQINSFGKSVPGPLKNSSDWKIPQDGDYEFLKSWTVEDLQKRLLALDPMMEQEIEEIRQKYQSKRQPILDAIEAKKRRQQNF

3×Flag-FoxO1-FL (mouse) = 3×Flag-FoxO1-FL (mouse) (UniProt Q9R1E0); test: pull-down; in vitro; recombinant human GST-C/EBP-β proteins (called preys in the legend) with 3×Flag-FoxO1-FL; PBS with 0.5% Triton X-100, 4 °C, glutathione Sepharose 4B; both purified
[2] = biological target: C/EBP-β in cultured cardiomyocyte lysates (co-immunoprecipitation with FoxO1) (not stated (endogenous rat C/EBP-β or adenoviral human C/EBP-β)) (UniProt P17676); test: co-IP; cultured cardiomyocyte lysates; C/EBP-β (WT, PM or PR) immunoprecipitated, FoxO1 detected; with or without overexpression of Mst1 or DN-Mst1; RIPA buffer
[3] = biological target: C/EBP-β Thr299Glu phospho-mimetic (PM) mutant, expressed in cardiomyocytes (human) (UniProt P17676); test: as above
[4] = biological target: C/EBP-β in cultured cardiomyocyte lysates (co-immunoprecipitation with FoxO1) (not stated (endogenous rat C/EBP-β or adenoviral human C/EBP-β)) (UniProt P17676); test: co-IP; cultured cardiomyocytes expressing FoxO1(S209A) or FoxO1-PR in the presence of Mst1 (Supplementary Fig. 8e); which protein was precipitated is not told

Substance | binding (3xFlag-Mst1-WT) | binding (3×Flag-FoxO1-FL (mouse)) | other results
FoxO1, endogenous in mouse heart (from UniProt Q9R1E0 1-652) |  |  | binding [1]: binds
FoxO1-CT1 (amino acid 280-421), GST fusion (from UniProt Q9R1E0 280-421) (domain or fragment) | no binding |  | 
C/EBP-β-MID (135-240), GST fusion (from UniProt P17676 135-240) (domain or fragment) |  | no binding | 
C/EBP-β-TA (1-134), GST fusion (from UniProt P17676 1-134) (domain or fragment) |  | no binding | 
FoxO1 in cultured cardiomyocyte lysates (co-immunoprecipitation with C/EBP-β) (from UniProt Q9R1E0 1-652) |  |  | binding [2]: binds; binding [3]: binds
FoxO1(S209A), expressed from adenovirus in cardiomyocytes (from UniProt Q9R1E0 1-652) |  |  | binding [4]: binds
Recombinant full-length human C/EBP-β (C/EBP-β-FL: amino acid 1-345), GST fusion (from UniProt P17676-1 1-345) |  | binds | 
C-terminal domain of C/EBP-β (C/EBP-β-CT: 241-345), GST fusion (from UniProt P17676 241-345) (domain or fragment) |  | binds | 
DNA-binding domain of FoxO1 (FoxO1-DBD: amino acid 111-280), GST fusion (from UniProt Q9R1E0 111-280) (domain or fragment) | binds |  | 
FoxO1-NT (amino acid 1-118), GST fusion (from UniProt Q9R1E0 1-118) (domain or fragment) | no binding |  | 
FoxO1 phospho-resistant (PR) mutant (Ser209, Ser215, Ser218, Thr228, Ser232 and Ser243 replaced with alanine), expressed from adenovirus in cardiomyocytes (from UniProt Q9R1E0 1-652) |  |  | binding [4]: no binding
Recombinant full-length FoxO1 (FoxO1-FL: amino acid 1-652), GST fusion (from UniProt Q9R1E0 1-652) | binds |  | 
FoxO1-CT2 (amino acid 421-652), GST fusion (from UniProt Q9R1E0 421-652) (domain or fragment) | no binding |  | 
